The supplement of paper PMC8728848
The list shows a part of the results.

Legend:
Assay in all cases: glycan array binding signal (z-score within array); higher = stronger binding
Details in all cases: glycan notation: IUPAC condensed, linker removed
[1] = molecular target: Gal(b1-3)[Neu5Ac(a2-6)]GlcNAc(a1-4)Gal(b1-4)Glc
How it was run: (§1)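 Glycan array data were curated from 3228 arrays in the Consortium for Functional Glycomics database and kept only where the protein sequence was available. Glycan names were converted to IUPAC-condensed notation, and columns mapping to the same glycan were averaged. The binding signal is a within-array Z-score, averaged across arrays of the same protein sequence at different concentrations or buffers and across linkers. Negative Z-scores can be read as non-binding.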

[2] = molecular target: Gal(b1-3)[Neu5Ac(b2-6)]GlcNAc
How it was run: as §1

[3] = molecular target: Gal(b1-4)GalNAc(a1-3)[Fuc(a1-2)]Gal(b1-4)GlcNAc
How it was run: as §1

[4] = molecular target: Gal(b1-4)GalNAc(b1-3)[Fuc(a1-2)]Gal(b1-4)GlcNAc
How it was run: as §1

Gal(b1-4)Glc = molecular target: Gal(b1-4)Glc
How it was run: as §1

Gal(b1-4)Glc6S = molecular target: Gal(b1-4)Glc6S
How it was run: as §1

Gal(b1-4)GlcNAc = molecular target: Gal(b1-4)GlcNAc
How it was run: as §1

[5] = molecular target: Gal(b1-4)GlcNAc(b1-2)Man(a1-3)[Gal(b1-4)GlcNAc(b1-2)Man(a1-6)]Man(b1-4)GlcNAc(b1-4)GlcNAc
How it was run: as §1

[6] = molecular target: Gal(b1-4)GlcNAc(b1-3)Gal(b1-3)GlcNAc
How it was run: as §1

[7] = molecular target: Gal(b1-4)GlcNAc(b1-3)Gal(b1-4)Glc
How it was run: as §1

[8] = molecular target: Gal(b1-4)GlcNAc(b1-3)Gal(b1-4)GlcNAc
How it was run: as §1

[9] = molecular target: Gal(b1-4)GlcNAc(b1-3)Gal(b1-4)GlcNAc(b1-3)Gal(b1-4)GlcNAc
How it was run: as §1

[10] = molecular target: Gal(b1-4)GlcNAc(b1-3)Gal(b1-4)[Fuc(a1-3)]GlcNAc(b1-3)Gal(b1-4)[Fuc(a1-3)]GlcNAc
How it was run: as §1

[11] = molecular target: Gal(b1-4)GlcNAc(b1-3)GalNAc
How it was run: as §1

[12] = molecular target: Gal(b1-4)GlcNAc(b1-3)[Gal(b1-4)GlcNAc(b1-6)]GalNAc
How it was run: as §1

[13] = molecular target: Gal(b1-4)GlcNAc(b1-6)GalNAc
How it was run: as §1

[14] = molecular target: Gal(b1-4)GlcNAc(b1-6)[Gal(b1-3)]GalNAc
How it was run: as §1

[15] = molecular target: Gal(b1-4)GlcNAc(b1-6)[Gal(b1-3)]GlcNAc
How it was run: as §1

Gal3S(b1-3)GalNAc = molecular target: Gal3S(b1-3)GalNAc
How it was run: as §1

Gal3S(b1-3)GlcNAc = molecular target: Gal3S(b1-3)GlcNAc
How it was run: as §1

[16] = molecular target: Gal3S(b1-3)[Fuc(a1-4)]GlcNAc
How it was run: as §1

Gal3S(b1-4)Glc = molecular target: Gal3S(b1-4)Glc
How it was run: as §1

Gal3S(b1-4)Glc6S = molecular target: Gal3S(b1-4)Glc6S
How it was run: as §1

Gal3S(b1-4)GlcNAc = molecular target: Gal3S(b1-4)GlcNAc
How it was run: as §1

Gal3S(b1-4)GlcNAc6S = molecular target: Gal3S(b1-4)GlcNAc6S
How it was run: as §1

Gal3S6S(b1-4)GlcNAc = molecular target: Gal3S6S(b1-4)GlcNAc
How it was run: as §1

Gal3S6S(b1-4)GlcNAc6S = molecular target: Gal3S6S(b1-4)GlcNAc6S
How it was run: as §1

Gal4S(b1-4)GlcNAc = molecular target: Gal4S(b1-4)GlcNAc
How it was run: as §1

Gal4S6S(b1-4)GlcNAc = molecular target: Gal4S6S(b1-4)GlcNAc
How it was run: as §1

Gal6S(b1-4)Glc = molecular target: Gal6S(b1-4)Glc
How it was run: as §1

Gal6S(b1-4)Glc6S = molecular target: Gal6S(b1-4)Glc6S
How it was run: as §1

Gal6S(b1-4)GlcNAc = molecular target: Gal6S(b1-4)GlcNAc
How it was run: as §1

GalNAc(a1-3)Gal = molecular target: GalNAc(a1-3)Gal
How it was run: as §1

GalNAc(a1-3)GalNAc = molecular target: GalNAc(a1-3)GalNAc
How it was run: as §1

[17] = molecular target: GalNAc(b1-3)Gal(a1-4)Gal(b1-4)GlcNAc
How it was run: as §1

GalNAc(b1-4)GlcNAc = molecular target: GalNAc(b1-4)GlcNAc
How it was run: as §1

Glc(a1-4)Glc = molecular target: Glc(a1-4)Glc
How it was run: as §1

B1: STA (Solanum tuberosum), Q9S8M0 (protein)
chain: NASPPSPSPLPYPQCGMKKGGGKCIKTGECCSIWGWCGTTNAYCSPGYCQKQCPGPYPEGRCGWQANGKSCPTGTGQCCSNGGWCGTTSDYCASKNCQSQCKLPSPPPPPPPPSPPPPSPPSPPPPSPPPPPPPSPPPPSPPPPSPSPPPPPASPPPPPPALPYPQCGIKKGGGKCIKTGECCSIWGWCGTTNAYCSPGYCQKQCPGPYPEGRCGWQANGKSCPTGTGHCCSNAGWCGTTSDYCAPVNCQAQCNTTTLTSPIKNRMRGIESFMLNVV
glycan array binding signal (z-score) [1]: -0.594 | glycan array binding signal (z-score) [2]: -0.57 | glycan array binding signal (z-score) [3]: 1.81 | glycan array binding signal (z-score) [4]: 1.88 | glycan array binding signal (z-score) (Gal(b1-4)Glc): -0.586 | glycan array binding signal (z-score) (Gal(b1-4)Glc6S): -0.533 | glycan array binding signal (z-score) (Gal(b1-4)GlcNAc): 1.88 | glycan array binding signal (z-score) [5]: -0.538 | glycan array binding signal (z-score) [6]: -0.578 | glycan array binding signal (z-score) [7]: 1.35 | glycan array binding signal (z-score) [8]: 1.77 | glycan array binding signal (z-score) [9]: 2.26 | glycan array binding signal (z-score) [10]: -0.587 | glycan array binding signal (z-score) [11]: -0.564 | glycan array binding signal (z-score) [12]: 1.84 | glycan array binding signal (z-score) [13]: 1.9 | glycan array binding signal (z-score) [14]: 1.32 | glycan array binding signal (z-score) [15]: 1.97 | glycan array binding signal (z-score) (Gal3S(b1-3)GalNAc): -0.559 | glycan array binding signal (z-score) (Gal3S(b1-3)GlcNAc): -0.54 | glycan array binding signal (z-score) [16]: -0.555 | glycan array binding signal (z-score) (Gal3S(b1-4)Glc): -0.501 | glycan array binding signal (z-score) (Gal3S(b1-4)Glc6S): -0.462 | glycan array binding signal (z-score) (Gal3S(b1-4)GlcNAc): 1.52 | glycan array binding signal (z-score) (Gal3S(b1-4)GlcNAc6S): 1.94 | glycan array binding signal (z-score) (Gal3S6S(b1-4)GlcNAc): -0.521 | glycan array binding signal (z-score) (Gal3S6S(b1-4)GlcNAc6S): 1.24 | glycan array binding signal (z-score) (Gal4S(b1-4)GlcNAc): 1.95 | glycan array binding signal (z-score) (Gal4S6S(b1-4)GlcNAc): -0.531 | glycan array binding signal (z-score) (Gal6S(b1-4)Glc): -0.553 | glycan array binding signal (z-score) (Gal6S(b1-4)Glc6S): -0.504 | glycan array binding signal (z-score) (Gal6S(b1-4)GlcNAc): -0.398 | glycan array binding signal (z-score) (GalNAc(a1-3)Gal): -0.568 | glycan array binding signal (z-score) (GalNAc(a1-3)GalNAc): -0.582 | glycan array binding signal (z-score) [17]: 1.69 | glycan array binding signal (z-score) (GalNAc(b1-4)GlcNAc): 1.92 | glycan array binding signal (z-score) (Glc(a1-4)Glc): -0.581
